Measured values reported in ChEMBL document CHEMBL1156829.
In all, about 5,400 compounds were measured (“IFI”: median about 2, highest 2% from about 22 on). Some of the results follow.

experiment: NOVARTIS: Inhibition Frequency Index (IFI) - the number of HTS assays where a compound showed > 50% inhibition/induction, expressed as a percentage of the number of assays in which the compound was tested.; type: functional

| Structure (SMILES) | IFI |
| --- | --- |
| O=C(Nc1ccc(-c2nc3cc(NC(=O)c4ccc(Cl)cc4)ccc3[nH]2)cc1)c1ccc(Cl)cc1 | 0% |
| CCCN(CCC)C(=O)c1c[nH]c2ccc(S(=O)(=O)N(C)c3ccc(F)cc3)cc2c1=O | 0% |
| CCOc1ccc2[nH]c(=O)c(CN(CCN(CC)CC)C(=S)NCCCN(CC)CC)cc2c1 | 4.63% |
| CCOC(=O)N1CCN(C(=O)c2cnc3ccc(C)cn3c2=O)CC1 | 0% |
| Cc1cccc2cc(CNC3CCOC(C)(C)C3)c(N3CCCC3)nc12 (stereo not drawn) | 1.72% |
| Cc1cccc2c1[nH]c1nc(SCC(C)C)nnc12 | 10.7% |
| O=C1CC(=O)Nc2cc(S(=O)(=O)NC3CCCCCCC3)ccc2N1 | 0% |
| COCCNc1cc(-c2ccccn2)nc(-c2ccccn2)n1 | 15.4% |
| COc1cccc(C(=O)C[n+]2cc(-c3ccc(Cl)cc3)n3c2CCC3)c1 | 2.44% |
| Cn1nc(C(=O)Nc2ccc(F)c(Cl)c2)c2c1-c1ccccc1S(=O)(=O)C2 | 0% |
| Cc1cc2c(cc1S(=O)(=O)N1CCCCC1C)OCC(=O)N2 (stereo not drawn) | 0% |
| CCOC(=O)c1c(C)[nH]c(C)c1S(=O)(=O)N1CCCC(C(=O)N2CCN(c3cccc(C)c3C)CC2)C1 (stereo not drawn) | 0% |
| CCOc1ccc(C(=O)C(CCC(C[N+]2(C)CCCCCC2)C(=O)c2ccc(OCC)cc2)C[N+]2(C)CCCCCC2)cc1 (stereo not drawn) | 0% |
| C=CC1(C)CC23CC(C(OC(=O)c4ccccc4)c4ccnc5ccccc45)N2CCC13 (stereo not drawn) | 3.64% |
| CCOC(=O)c1cnc2c(C)cc(C)cc2c1Nc1ccc(C(C)=O)cc1 | 0% |
| CCOC(=O)c1cccc(NC(=O)CCn2c(-c3ccc(F)cc3)cc(C(=O)OCC)c2C)c1 | 0% |
| CCN1CC=C2C(C#N)=C(N)C(C#N)(C#N)[C@H](c3ccc(C)s3)[C@H]2C1 | 3.28% |
| Cc1ccccc1C(=O)NCCCCNc1ccnc2cc(Cl)ccc12 | 2.8% |
| COC(=O)C1=C(C)NC2=C(C(=O)CC(c3ccc(OC)c(OC)c3)C2)C1c1ccccc1C (stereo not drawn) | 4.65% |
| O=C(NCc1ccccc1)c1cnc(NCCCN2CCCC2)nc1NCC1CCCCC1 | 0.971% |
| CN(C)c1ccc(NC(=O)c2cccnc2C(=O)O)cc1 | 6.02% |
| COc1cccc(OC)c1C(=O)NCCCCNc1ccnc2cc(Cl)ccc12 | 0.935% |
| N=c1c2ccccc2nnn1-c1ccc(C(F)(F)F)cc1 | 2.53% |
| Oc1c2c(nc3cc(-c4ccc(Br)cc4)nn13)CCCC2 | 9.52% |
| Cn1c(COc2ccc(Cl)cc2Cl)[n+](C)c2ccccc21 | 0% |

| Structure (SMILES) | IFI |
| --- | --- |
| CN(C)c1ccc(C=NNc2ncnc3nc[nH]c23)cc1 | 0% |
| Cc1ccc(NC(=O)COc2ccc(Cl)cc2Cl)nc1 | 8.33% |
| Cc1ccn(CC(=O)N2CCOc3c(cc(-c4csc5ccccc45)cc3OCCc3ccccn3)C2)n1 | 4% |
| C/C=C(\Cl)C1=CC(=O)[C@]23C[C@H]2[C@@]2(C)CO[C@@]1(O)[C@@]3(O)O2 | 6.86% |
| CC(=O)N1CCN(C(=O)CCCSc2nnc(-c3ccc(C)cc3)n2-c2cccc(C)c2)CC1C (stereo not drawn) | 2.75% |
| CSc1nc2nc(C)c(Cc3cccc(C(F)(F)F)c3)c(C)n2n1 | 1.25% |
| COC(=O)c1sc2nc(CN3CCC(C)CC3)ccc2c1NC(=O)c1ccc(C)s1 | 1.74% |
| c1ccc(-c2cc(N3CCN(c4ccccn4)CC3)nc(-c3ccccn3)n2)nc1 | 15.4% |
| O=C1CC(c2cccc([N+](=O)[O-])c2)c2cc3c(cc2N1)OCO3 (stereo not drawn) | 4% |
| COc1cccc(NC(=O)c2ccc(NCCCN3CCC(C)CC3)c([N+](=O)[O-])c2)c1 | 0% |
| CCN1CCN(Cc2c(O)ccc3c(=O)c(Oc4cc(C)cc(C)c4)c(C(F)(F)F)oc23)CC1 | 3.49% |
| Cc1ccc(C(=O)N(C)CCCNc2ccnc3cc(Cl)ccc23)cc1 | 1.87% |
| CCC1=NN2C(=N)/C(=C/c3cn(CCOc4ccccc4C(C)CC)c4ccccc34)C(=O)N=C2S1 (stereo not drawn) | 0% |
| c1ccc(OCCOc2ccc(Nc3ccnc4cc5ccccc5cc34)cc2)cc1 | 6.15% |
| CCCCOc1ccc(N(C(C)=O)C2=C(N3CCCCC3)C(=O)c3ccccc3C2=O)cc1 | 6.76% |
| CCN(CC)Cc1cc(Nc2ccnc3cc(Cl)ccc23)ccc1O | 2.59% |
| N#Cc1c(N)nc2sc(C(=O)c3ccc(F)cc3)c(N)c2c1-c1ccccc1 | 4.17% |
| CCOC(=O)C1=C(C)NC2=C(C(=O)CC(c3ccc(Cl)cc3)C2)C1c1ccccc1Cl (stereo not drawn) | 3.23% |
| CN(C)CC(O)Cn1c2ccccc2c2ccccc21 (stereo not drawn) | 3.82% |
| Cc1c(C(=O)N2CCN(c3cccc(Cl)c3)CC2)sc2ncnc(N(C)c3ccccc3)c12 | 3.49% |
| OC(CNC1CCCCC1)Cn1c2ccccc2c2ccccc21 (stereo not drawn) | 2.13% |
| CC(C)NC(=O)CN(C)C1c2ccccc2CCc2ccccc21 | 4.59% |
| CN(C)CCN(C)Cc1cc(Br)cs1 | 5.83% |
| CCN(c1ccc(F)cc1)S(=O)(=O)c1ccc2[nH]cc(C(=O)NCCC(C)C)c(=O)c2c1 | 0% |
| CC(C)CCNC(=O)C1CSC(c2ccc(F)cc2)N1C(=O)c1ccc(Cl)cc1Cl (stereo not drawn) | 3.23% |

| Structure (SMILES) | IFI |
| --- | --- |
| CC(C)CN(CC(=O)Nc1cc(C(C)(C)C)nn1-c1ccccc1)C(=O)COc1ccccc1 | 1.85% |
| NNC(=O)C1CCCN1S(=O)(=O)c1ccc(Cl)cc1 (stereo not drawn) | 1.05% |
| O=[N+]([O-])c1ccc(Nc2nc(NN=Cc3ccccc3I)nc(Nc3ccccc3)n2)cc1 | 2.63% |
| N=C(N)NN=Cc1cc(Cl)ccc1O | 3.17% |
| CCN(CC)CCN1C(=O)c2ccc3c4c(ccc(c24)C1=O)C(=O)N(CCN(CC)CC)C3=O | 15.2% |
| Cc1n(N)c2ccccc2[n+]1CC(=O)c1ccccc1 | 1.56% |
| O=C(Cn1c2ccccc2c(=O)c2cc([N+](=O)[O-])ccc21)Nc1ccc(F)c(Cl)c1 | 2.41% |
| CC[n+]1cccc2ccc3cccnc3c21 | 7.69% |
| O=C1N(c2ccccc2)C[C@@H]2C[C@@H](c3ccc4nonc4c3)N3CCC[C@@]123 | 7.69% |
| CC(C)CC(NC(=O)/C(=C\c1ccco1)NC(=O)c1ccccc1)C(=O)OCc1ccccc1 (stereo not drawn) | 0% |
| Cc1nc(N)sc1C(=O)NN=Cc1cccc(Br)c1 | 0% |
| CCOC(=O)C(=CNc1ccccc1[N+](=O)[O-])C(=O)OCC | 0% |
| O=C1CC(C(=O)N2CCC(c3nc(-c4cccnc4)ncc3-c3ccccc3)CC2)c2ccccc21 (stereo not drawn) | 2.61% |
| Cc1sc2sc(-c3ccccc3)c(N)[n+]2c1C | 0% |
| O=C(Cn1c2ccccc2c(=O)c2ccc(Cl)cc21)Nc1cccc(Cl)c1 | 4.82% |
| COc1ccccc1N1CCN(c2c3c(nc4nncn24)CCC3)CC1 | 0% |
| Brc1ccc(-c2cn3c([n+]2Cc2ccccc2)SCCC3)cc1 | 0% |
| c1ccc2c(c1)[nH]c1c(NCCN3CCCCC3)ncnc12 | 3.85% |
| Cc1ccc(-c2c3c4n(c(-c5ccc(Cl)cc5)cn4c2C(=O)Nc2ccccc2Cl)CCCC3)cc1 | 6.06% |
| CCOc1ccc(N2C(=O)C3C4CC(C(Br)C4Br)C3C2=O)cc1 (stereo not drawn) | 0% |
| CCOC(=O)C1=C(C)NC2=C(C(=O)CC(c3ccc(Cl)cc3)C2)C1c1ccc(Cl)cc1 (stereo not drawn) | 3.53% |
| c1ccc(-c2ccc(CNc3ccc4cn[nH]c4c3)cc2)cc1 | 15.4% |
| COc1cc(OC)c(NC(=O)C2c3ccccc3C(=O)N(CC(C)C)C2c2cccs2)cc1Cl (stereo not drawn) | 6.06% |
| O=C(Cn1c2ccccc2c(=O)c2ccc(Cl)cc21)Nc1ccc(C(F)(F)F)cc1 | 3.57% |
| CC1CC(N(C(=O)c2ccc(Cl)cc2Cl)c2ccccc2)c2ccccc2N1C(=O)c1ccc(Cl)cc1 (stereo not drawn) | 2.44% |

| Structure (SMILES) | IFI |
| --- | --- |
| CCOc1ccc2[nH]c3c(NCCCN(C)C)ncnc3c2c1 | 3.33% |
| CC(=O)NCCc1nc2ccccc2n1Cc1ccc(C(C)C)cc1 | 0% |
| CCOC(=O)C1=C(C)N=c2sc(=Cc3cc(Br)ccc3O)c(=O)n2C1c1ccccc1 (stereo not drawn) | 1.18% |
| O=C(/C=C/c1c[nH]cn1)N1CCC(n2c(CC3CCCC3)nc3cccnc32)CC1 | 0.971% |
| CC(=O)N(C1=C(N2CCOCC2)C(=O)c2ccccc2C1=O)c1cccc(Cl)c1 | 0% |
| Cc1ccnc(Nc2nc(-c3c(C)nc4sccn34)cs2)c1 | 4.22% |
| O=C(Cc1ccccc1)Nc1ccc(C(=O)Nc2ccc(-c3nc4ccc(NC(=O)c5ccc(NC(=O)Cc6ccccc6)cc5)c(Cl)c4[nH]3)cc2)cc1 | 7.58% |
| CSc1cccc(NC(=O)C2C3C=CC4(O3)C2C(=O)N(CCN2CCCCC2)C4C(=O)NC2CCCC(C)C2C)c1 (stereo not drawn) | 0% |
| O=[N+]([O-])c1cc(Cl)c(N2CCOCC2)cc1N1CCOCC1 | 1.44% |
| N#C/C(=C\C=C\c1ccc([N+](=O)[O-])o1)c1nc2ccccc2[nH]1 | 28.6% |
| COc1ccc(-[n+]2cc(-c3ccc(Br)cc3)n3c2SCCC3)cc1 | 7.69% |
| CC1CCN(C(=O)C2CCCN(S(=O)(=O)c3ccc4[nH]c(-c5ccccc5)nc4c3)C2)CC1 (stereo not drawn) | 3.12% |
| Fc1ccc(CSc2nc3cccnc3[nH]2)cc1 | 0% |
| COC(=O)c1cn([C@H]2C[C@@H](C(=O)NCc3ccc(OC)cc3)N(Cc3ccsc3)C2)nn1 | 1.98% |
| Cc1cccc(-c2cc3nc(C)c(C)c(O)n3n2)c1 | 0% |
| CCCNC(=O)Cn1nc(C)n2c(cc3sccc32)c1=O | 0% |
| COc1ccc(-c2cc(=O)c3c(O)cc(OC4OC(COC5OC(C)C(O)C(O)C5O)C(O)C(O)C4O)cc3o2)cc1 (stereo not drawn) | 0% |
| CC(=O)Nc1ccccc1OC(F)(F)F | 2.13% |
| COc1ccc(-c2c[n+](CC(=O)c3ccc(C)cc3)c3n2CCC3)cc1 | 2.38% |
| CC(=O)N(C1=C(N2CCCCC2)C(=O)c2ccccc2C1=O)c1cccc(Cl)c1 | 7.69% |
| CCOC(=O)C1=C(C)NC2=C(C(=O)CCC2)C1c1ccc([N+](=O)[O-])cc1 (stereo not drawn) | 1.14% |
| CCN1/C(=C/C2=CC(=C/c3sc4ccccc4[n+]3CC)/CC(C)(C)C2)C=Cc2ccccc21 | 9.43% |
| CCCCCCCCCCCC(=O)N(C)CCCNc1ccnc2cc(Cl)ccc12 | 2.8% |
